From PMC9160250, “Nuclear Vav3 is required for polycomb repression complex-1 activity in B-cell lymphoblastic leukemogenesis” (Nature Communications, 2022)
These are yes or no findings as the source states them, for the method shown. In cells and extracts the contact can be indirect. Some entries that bind do so weakly or less than the wild type.

T1: Bmi1 (mouse (endogenous in Ba/F3 cells and murine B-cell progenitors)) (UniProt P25916)
T1 sequence: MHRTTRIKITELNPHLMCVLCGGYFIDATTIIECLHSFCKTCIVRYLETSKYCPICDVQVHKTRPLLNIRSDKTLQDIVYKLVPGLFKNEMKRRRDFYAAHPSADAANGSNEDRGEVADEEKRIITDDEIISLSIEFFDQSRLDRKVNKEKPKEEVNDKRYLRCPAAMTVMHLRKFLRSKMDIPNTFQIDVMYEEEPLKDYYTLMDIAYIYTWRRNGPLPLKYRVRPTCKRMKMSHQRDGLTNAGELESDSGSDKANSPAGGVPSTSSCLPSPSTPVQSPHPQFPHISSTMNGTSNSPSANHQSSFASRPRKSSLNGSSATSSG

B1: WT Vav3 (full-length; FL) (protein, UniProt Q9R0C8 1-847)
chain: MEPWKQCAQWLIHSKVLPPNHRVTWDSAQVFDLAQTLRDGVLLCQLLNNLRPHSINLKEINLRPQMSQFLCLKNIRTFLAACCDTFGMRKSELFEAFDLFDVRDFGKVIETLSRLSRTPIALATGIRPFPTEESINDEDIYKGLPDLIDETRVEDEEDLYDCVYGEDEGGEVYEDLMKAEEAQQPKSQENDIRSCCLAEIRQTEEKYTETLESIEKYFMAPLKRFLTAAEFDSVFINIPDLVKVHRSLMQEIHDSIVNKDDQNLYQVFINYKERLVIYGQYCSGVESAISNLDYISKTKEDVKLKLEECSKRANNGKFTLRDLLVVPMQRVLKYHLLLQELVKHTHDPMEKANLKLALDAMKDLAQYVNEVKRDNETLREIKQFQLSIENLNQPVLLFGRPQGDGEIRITTLDKHTKQERHIFLFDLAVIVCKRKGDNYEMKEIIDLQQYKIANNPTTDKENKKWSYGFYLIHTQGQNGLEFYCKTKDLKKKWLEQFEMALSNIRPDYADSNFHDFKMHTFTRVTSCRVCQMLLRGTFYQGYLCFKCGAKAHKECLGRVDNCGRVNSVEQGPFKPPEKRTNGLRRASRQVDPGLPKMQVIRNYTGTPAPGLHEGPPLHIQAGDTVELLRGDAHSVFWQGRNLASGEVGFFPSDAVKPSPCVPKPVDYSCQPWYAGPMERLQAETELINRVNSTYLVRHRTKESGEYAISIKYNNEAKHIKILTRDGFFHIAENRKFKSLMELVEYYKHHSLKEGFRTLDTTLQFPYKEPEQPAGQRGNRTGNSLLSPKVLGIAIARYDFCARDMRELSLLKGDMVKIYTKMSANGWWRGEVNGRVGWFPSTYVEEDE
B2: pleckstrin homology domain leucine-rich repeat protein phosphatase 2 (Phlpp2) (protein, UniProt Q8BXA7 1-1320)
chain: MKHNGSRTCLNRRSRFGSRERDWLREDVKRGCVYLYGADTTTATTTTSSSSSSSSSSDLHLVLCTVETPASEICAGEGRESLYLQLHGDLVRRLEPSERPLQIVYDYLSRLGFEDPVRIQEEATNPDLSCMIRFYGEKPCQMDHLDRILLSGIYNVRKGKTQLHKWAERLVVLCGTCLIVSSVKDCQTGKMHILPLVGGKIEEVKRRQHSLAFSSAGAQAQTYHVSFETLAEYQRWQRQASKVVSQRMSTVDLSCYSLEEVPEHLFYSQDITYLNLRHNFMQLERPGGLDTLHKFSQLKGLNLSHNKLGLFPVLLCEISTLTELSLSCNGFHDLPSQIGKLLNLQTLSLDGNGLTALPDELGNLRQLTSLGISFNDFRHIPEVLEKLTMLDKVAMAGNRLEVLNLGALTRMSQVKHVDLRMNHLKTVITENMEGNKHITHMDLRDNQLTDLDLSSLCSLEQLHCERNQLRELTLSGFSLRTLYASWNRLTAVNVYPVPSLLTSLELSQNLLECVPDWACEAKKLEILDISHNLLTEVPMRILSSLSLRKLMVGHNHIHVLPALVEHIPLEVLDIQHNTLSRLPDTLFSKALNLRYLNASANSLESLPSACAGEESLSVLQLLYLTSNLLTDQCIPVLVGHPHLRVLHLANNQLQTFPASKLNKLEQLEELNLSGNKLTAIPTTIANCKRLHTLVAHANNISIFPEILQLPQIQFVDLSCNDLTEILIPEALPATLQDLDLTGNTNLVLEHKTLDMFSHITALKIDQKPLPATDSAVTSTFWSHGLAEMAGQRNKLCVSALAMDNFAEGVGAVYGMFDGDRNEELPRLLQCTMADVLLEEVQHSTNDTVFMTNTFLVSHRKLGMAGQKLGSSALLCYIRPDTADPTSSFSLTVANVGMCQAVLCRGGKPVPLSKVFSLEHDPEEAQRVKDQKAIITEDNKVNGVTCCTRLLGCTYLYPWILPKPHIASTPLTIQDELLILGNKALWEHLSYLEAVNAVRHVQDPLAAAKKLCTLAQSYGCQDNVGAMVVYLNIGEEGCTCEMNGLTLPGPVGFASTAALKDTPKPTTPSSSSGIASEFSSEMSTSEVSSEVGSTASDEHNTVGLEASLLPRPERRCSLHPASSAGVFQRQPSCATFSSNQSDNGLDSDDDQPVEGVITNGSRVEVEVDIHCCRGREPESSPPLPKNSSNACSEERARGAGFGIRRQNSVNSGILLPANRDKMELQKSPSTSCLYGKKLSNGSIVPLEDSLNLIEVATEAPKRKTGYFAAPTQLEPEDQFVVPRDLEEEVKEQMKQHQEGRPEPEPRGEERTEPLEEFDTAL

Target: T1, Bmi1 (mouse (endogenous in Ba/F3 cells and murine B-cell progenitors))
Assay: proximity ligation; Duolink PLA in fixed, permeabilised primary murine B-cell progenitors on fibronectin-coated slides (empty vector or p190-BCR-ABL transduced; WT, Rac2-/-, or Vav3-/- transduced with empty vector, Vav3 FL or Vav3 N369A); confocal microscopy

Binder	binding
B1	binds
B2	no binding
